Test results published in patent publication US11491155B2, “Salt of a pyrimido[6,1-A]isoquinolin-4-one compound” (VERONA PHARMA PLC, priority 2015, dated 2022).
Structures can show the parent of a compound that is named as a salt. This continues a long series; more values of the same kind are listed elsewhere.

Test: Solubility of RPL554 salts in saline solutions, water and aqueous buffer solutions at 25° C. (HPLC)
Type: physicochemical
Conditions: for Solubility as RPL554 (mg/ml) in buffer solution pH 3.5, Phosphate / Solubility as RPL554 (mg/ml) in buffer solution pH 4.5, Acetate / Solubility as RPL554 (mg/ml) in buffer solution pH 4.5, Citro-phosphate / Solubility as RPL554 (mg/ml) in buffer solution pH 6.5, Phosphate: in saline 0.9% w/w
Description: The behaviour of salts of RPL554 were examined under the following conditions: • Phosphate buffered to pH 3.5 in saline, 0.9% w/w at 25° C. • Acetate buffered to pH 4.5 in saline, 0.9% w/w at 25° C. • Citro-Phosphate buffered to pH 4.5 in saline, 0.9% w/w at 25° C. • Phosphate buffered to pH 6.5 in saline, 0.9% w/w at 25° C. • Saline, 0.7, 0.9 and 1.1% w/w at 25° C. • Deionised water at 25° C.
RPL554 salts and RPL554, ca 50 mg, were suspended in the various aqueous media, 1 ml, with agitation at the specified temperatures for 24 hours. The solids were isolated and dried in vacuo at 45° C. The retained filtrates were examined by HPLC.
Additional RPL554 methane sulfonate salt, ca 50 mg, was charged to the water mixtures at 25° C. and 37.5° C. in order to afford a suspension. In all other cases, suspensions were obtained.
The solubility of the RPL554 was determined by HPLC using a single point calibration and is expressed as RPL554 and not as the salt and are detailed in Table 6 and Table 7 for the various conditions utilised.

| Structure (SMILES) | Solubility as RPL554 (mg/ml) in buffer solution pH 3.5, Phosphate | Solubility as RPL554 (mg/ml) in buffer solution pH 4.5, Acetate | Solubility as RPL554 (mg/ml) in buffer solution pH 4.5, Citro-phosphate | also measured |
| --- | --- | --- | --- | --- |
| COc1cc2c(cc1OC)-c1c/c(=N\c3c(C)cc(C)cc3C)n(CCNC(N)=O)c(=O)n1CC2 [Hydrobromide, RPL554 hydrobromide] | – | – | – | Solubility as RPL554 (mg/ml) in buffer solution pH 3.5, Phosphate (hydrobromide): 0.33 mg/ml; Solubility as RPL554 (mg/ml) in buffer solution pH 4.5, Acetate (hydrobromide): 0.71 mg/ml; Solubility as RPL554 (mg/ml) in buffer solution pH 4.5, Citro-phosphate (hydrobromide): 0.75 mg/ml |
| COc1cc2c(cc1OC)-c1c/c(=N\c3c(C)cc(C)cc3C)n(CCNC(N)=O)c(=O)n1CC2 [Sulfate, RPL554 sulfate] | 1.22 mg/ml | 0.42 mg/ml | 1.75 mg/ml | – |
| COc1cc2c(cc1OC)-c1c/c(=N\c3c(C)cc(C)cc3C)n(CCNC(N)=O)c(=O)n1CC2 [Ethane-1,2-disulfonate, RPL554 ethane-1,2-disulfonate] | 2.66 mg/ml | 1.47 mg/ml | 4.14 mg/ml | Solubility as RPL554 (mg/ml) in 0.9 w/w % Saline (24 hours): 4.12 mg/mL; Solubility as RPL554 (mg/ml) in 1.1 w/w % Saline (24 hours): 1.03 mg/mL; Solubility as RPL554 (mg/ml) in Water (deionised water, 24 hours): 3.69 mg/mL |
| COc1cc2c(cc1OC)-c1c/c(=N\c3c(C)cc(C)cc3C)n(CCNC(N)=O)c(=O)n1CC2 [Phosphate, RPL554 phosphate] | 1.84 mg/ml | 1.67 mg/ml | 3.29 mg/ml | Solubility as RPL554 (mg/ml) in buffer solution pH 6.5, Phosphate: 0.02 mg/ml |
| COc1cc2c(cc1OC)-c1c/c(=N\c3c(C)cc(C)cc3C)n(CCNC(N)=O)c(=O)n1CC2 [Methanesulfonate, RPL554 methanesulfonate] | 1.72 mg/ml | 2.01 mg/ml | 3.10 mg/ml | Solubility as RPL554 (mg/ml) in buffer solution pH 6.5, Phosphate: 0.02 mg/ml |
| COc1cc2c(cc1OC)-c1c/c(=N\c3c(C)cc(C)cc3C)n(CCNC(N)=O)c(=O)n1CC2 [RPL554, 9,10-dimethoxy-2-(2,4,6-trimethylphenylimino)-3-(N-carbamoyl-2-aminoethyl)-3,4,6,7-tetrahydro-2H-pyrimido[6,1-a]isoquinolin-4-one] | – | – | – | Solubility as RPL554 (mg/ml) in buffer solution pH 3.5, Phosphate (listed as None (RPL554)): 0.30 mg/ml; Solubility as RPL554 (mg/ml) in buffer solution pH 4.5, Acetate (listed as None (RPL554)): 0.24 mg/ml; Solubility as RPL554 (mg/ml) in buffer solution pH 4.5, Citro-phosphate (listed as None (RPL554)): 0.22 mg/ml |
| COc1cc2c(cc1OC)-c1c/c(=N\c3c(C)cc(C)cc3C)n(CCNC(N)=O)c(=O)n1CC2 [Naphthalene-2-sulfonate] | 0.08 mg/ml | 0.41 mg/ml | 0.28 mg/ml | – |
| COc1cc2c(cc1OC)-c1c/c(=N\c3c(C)cc(C)cc3C)n(CCNC(N)=O)c(=O)n1CC2 [Ethanesulfonate, RPL554 ethanesulfonate] | 1.18 mg/ml | 0.46 mg/ml | 1.55 mg/ml | – |
| COc1cc2c(cc1OC)-c1c/c(=N\c3c(C)cc(C)cc3C)n(CCNC(N)=O)c(=O)n1CC2 [p-Toluenesulfonate, RPL554 p-toluenesulfonate] | 0.18 mg/ml | 0.77 mg/ml | 0.61 mg/ml | – |
| COc1cc2c(cc1OC)-c1c/c(=N\c3c(C)cc(C)cc3C)n(CCNC(N)=O)c(=O)n1CC2 [Hydrochloride, RPL554 hydrochloride] | – | – | – | Solubility as RPL554 (mg/ml) in buffer solution pH 3.5, Phosphate (hydrochloride): 1.07 mg/ml; Solubility as RPL554 (mg/ml) in buffer solution pH 4.5, Acetate (hydrochloride): 1.38 mg/ml; Solubility as RPL554 (mg/ml) in buffer solution pH 4.5, Citro-phosphate (hydrochloride): 1.93 mg/ml |
